Whole data set: some 33,000 sequences, median “E-score (-0.5 to 0.5)” near -0.021, cut for the highest 2% near 0.32. This is one part of the list.
Molecular target: T1, Zap1 (UniProt P47043)
T1 sequence: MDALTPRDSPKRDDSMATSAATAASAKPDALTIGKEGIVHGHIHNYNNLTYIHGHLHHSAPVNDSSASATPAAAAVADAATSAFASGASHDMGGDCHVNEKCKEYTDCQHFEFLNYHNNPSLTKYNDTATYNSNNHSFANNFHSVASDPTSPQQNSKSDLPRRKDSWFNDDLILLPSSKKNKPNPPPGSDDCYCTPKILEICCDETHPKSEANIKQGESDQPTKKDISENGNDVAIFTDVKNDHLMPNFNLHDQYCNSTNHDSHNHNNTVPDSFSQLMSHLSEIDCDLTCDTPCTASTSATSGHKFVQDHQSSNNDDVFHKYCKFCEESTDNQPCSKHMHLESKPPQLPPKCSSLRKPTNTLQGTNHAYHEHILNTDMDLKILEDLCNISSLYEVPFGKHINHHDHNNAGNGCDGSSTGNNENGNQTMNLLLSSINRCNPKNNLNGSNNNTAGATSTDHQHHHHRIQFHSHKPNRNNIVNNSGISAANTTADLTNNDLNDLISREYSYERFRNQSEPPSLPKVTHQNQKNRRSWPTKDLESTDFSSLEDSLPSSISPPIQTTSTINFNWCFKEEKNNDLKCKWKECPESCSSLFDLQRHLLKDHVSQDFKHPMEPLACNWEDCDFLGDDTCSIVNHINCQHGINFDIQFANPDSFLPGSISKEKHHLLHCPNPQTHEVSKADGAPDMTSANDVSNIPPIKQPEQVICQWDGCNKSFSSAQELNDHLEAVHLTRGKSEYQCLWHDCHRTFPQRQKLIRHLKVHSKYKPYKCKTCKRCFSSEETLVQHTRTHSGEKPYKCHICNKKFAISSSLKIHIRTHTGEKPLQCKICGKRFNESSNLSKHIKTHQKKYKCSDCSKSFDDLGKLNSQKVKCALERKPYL
Test: PBM E-score (8-mer binding enrichment) (E-score (-0.5 to 0.5)); higher = stronger / more preferred TF binding; most listed sequences are background and not binding sites
Settings: protein concentration: 200 nM; construct: GST-full length
Outline: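 Each ungapped eight-base word and its reverse complement, pooled, received an E-score from the Universal PBM Analysis Suite. Underlying scans, normalised with masliner, recorded fluorescent anti-GST bound to GST-tagged yeast transcription factors. These were applied at about 100-200 nM to universal all-10-mer Agilent arrays double-stranded by primer extension.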

| Sequence | PBM E-score |
| --- | --- |
| ATGGACTC | -0.0765 |
| GGGGCAAC | -0.0672 |
| GGCCTGCA | -0.285 |
| ATACTTAG | 0.107 |
| AGTTTTCG | 0.148 |
| CCCTCATA | 0.0732 |
| CTAAACGC | 0.0433 |
| GCATGGGC | -0.0783 |
| ATTTCTGA | 0.0932 |
| TACCACCA | 0.235 |
| AAGCCCCC | -0.357 |
| AGACTAAC | 0.0944 |
| ACCGTAAC | 0.331 |
| AACCAGAT | 0.142 |
| CGGGTCTC | 0.0449 |
| CGGACCAA | 0.146 |
| GGGAGTTA | 0.0753 |
| CCCTAAAC | 0.00325 |
| CGCGAGCA | -0.0177 |
| ATAGAATG | 0.0462 |
| TGCTCGAA | -0.0246 |
| GTTTCTGA | 0.262 |
| AGTCTACA | -0.18 |
| AGGGGGCG | -0.279 |
| CAACTGTG | 0.036 |

| Sequence | PBM E-score |
| --- | --- |
| CATTAGGC | -0.137 |
| ATACTCAA | 0.179 |
| CATACGAC | -0.049 |
| CTCCAACA | -0.121 |
| AGTTCAAC | 0.00606 |
| CATGCCGA | -0.158 |
| AGCGCTAA | -0.0129 |
| CTCTATAC | -0.0596 |
| ATTAGTGG | 0.129 |
| AAGTTAAG | -0.101 |
| ACCGTTTA | 0.142 |
| CAATCCCC | -0.144 |
| AGACCTAA | -0.017 |
| TAATACGA | 0.0734 |
| TCTAGAAA | 0.126 |
| AAATACAG | 0.175 |
| GGACTCCC | -0.263 |
| GATATGAC | -0.101 |
| AATGTGGT | 0.184 |
| CGGACTCA | -0.0196 |
| AATAACCC | 0.466 |
| TAACAAGA | 0.0572 |
| AATTCGCT | 0.0676 |
| ATGCAGTG | -0.0561 |
| AGCGTGAG | -0.102 |

| Sequence | PBM E-score |
| --- | --- |
| ACCTTCCA | 0.186 |
| AGGGCTTA | -0.176 |
| ACGACCTA | 0.207 |
| ACGGCTGA | -0.13 |
| AATCCTCC | -0.255 |
| CCTTCTTC | -0.134 |
| AGCGACAC | -0.0151 |
| AACTGTCG | -0.142 |
| CTATCTCC | -0.246 |
| AGCCGACA | -0.131 |
| TGAACGCA | 0.0956 |
| CGGTGATC | 0.0109 |
| AATCTTCG | 0.0708 |
| CAAGATAC | 0.0232 |
| CAGGTGGG | -0.0919 |
| ATAAGCAT | -0.148 |
| ATGTATAA | 0.0262 |
| ATGGAAGA | -0.0883 |
| AAGCGATG | -0.131 |
| TGGGCCAA | -0.124 |
| GAAAACAA | 0.19 |
| GGAGATTA | -0.13 |
| ATGTGGGC | -0.0665 |
| CATTACGC | -0.0497 |
| CGATAGGA | -0.0122 |

| Sequence | PBM E-score |
| --- | --- |
| ACGGACGG | -0.0811 |
| CACAGCTA | -0.186 |
| AATCCCAC | 0.0121 |
| GCTCCAGA | -0.107 |
| CCCCAGCC | 0.0327 |
| CGTCGCCC | -0.148 |
| GAAGGGTA | 0.421 |
| GCCATGCC | -0.172 |
| GCATTGGA | -0.174 |
| ATACTAAT | 0.0981 |
| CATAATAC | 0.151 |
| TCAAAGAA | 0.0332 |
| CAGATATG | -0.147 |
| ATTCTAGC | -0.0432 |
| GTGGGTTA | 0.404 |
| AGGCTCAC | -0.25 |
| ATACTTCG | -0.172 |
| GACCCCCC | -0.236 |
| CTTCGGAA | -0.0238 |
| CACTTAAA | 0.0388 |
| AGCATTTC | -0.0474 |
| TAAAAGCA | 0.00902 |
| AGAATAAT | 0.0143 |
| TCTTGGAA | 0.089 |
| AGGCCACC | 0.0176 |

| Sequence | PBM E-score |
| --- | --- |
| AAGCGCCG | -0.139 |
| CCAACAAC | 0.129 |
| GATCTTGA | 0.138 |
| GGACGAAA | 0.18 |
| AAAGTTGA | -0.134 |
| CCTCTACA | 0.107 |
| ATGTTTGG | 0.0491 |
| TAACAATA | 0.198 |
| CAGTGTAC | -0.0583 |
| CACAACTA | 0.247 |
| ATGGTTGA | 0.0307 |
| ACGGCCAC | 0.0282 |
| AATTCAGG | 0.0483 |
| CGCGTGGC | -0.068 |
| CTCACAAA | 0.0579 |
| AATCAATG | 0.0703 |
| GGTGCTAA | 0.00201 |
| GTGTGAGA | -0.0418 |
| AATCTACG | -0.128 |
| AATGTTAG | -0.0444 |
| CACAAGCG | -0.025 |
| GCTCCTGA | -0.103 |
| GAGAGAAC | -0.0702 |
| CGCAGGGC | -0.114 |
| ACTGGAAT | 0.0754 |

| Sequence | PBM E-score |
| --- | --- |
| CGGTTGCC | 0.0909 |
| TATCTTCA | 0.0584 |
| CGGAATAG | 0.113 |
| TAACAGAA | 0.177 |
| TTAGCCAA | 0.0203 |
| CGCACCCC | -0.0569 |
| CGTAACGA | -0.081 |
| CCGGGTAG | 0.102 |
| CGTTCGCA | -0.0203 |
| ACTGCGGC | -0.152 |
| GCTGGGAA | 0.0508 |
| ATCTCTCA | 0.0115 |
| TAAGTGTA | 0.0581 |
| CTCCCAGC | -0.382 |
| CCTTTATC | 0.121 |
| TAAGGATA | -0.0281 |
| ATTATTCA | 0.199 |
| CATTTTGA | 0.137 |
| CGACCCCG | 0.283 |
| CGCTTAAA | 0.053 |
| AGACTACG | -0.162 |
| GAGGCTCA | -0.244 |
| AAATATAG | 0.0329 |
| GCATACAC | -0.144 |
| CGAGTCTC | -0.176 |

| Sequence | PBM E-score |
| --- | --- |
| CGACCTAA | 0.18 |
| GTTTATAA | 0.191 |
| CAAGATTG | -0.121 |
| CCTGCAGG | 0.195 |
| CATAGTCA | 0.00578 |
| ACCCGTGC | 0.161 |
| ATAACTAC | 0.287 |
| AGAAGAGG | 0.068 |
| CACCCCTC | 0.239 |
| ATCGGTTA | 0.309 |
| GCCACCGC | 0.0231 |
| GAAGAAAA | -0.0414 |
| CTTTATTC | 0.0612 |
| CCCTGGCC | -0.00617 |
| CATAGGAC | -0.0439 |
| CAGAACGA | 0.0684 |
| AGATCGCC | -0.109 |
| ATCCTAGC | -0.143 |
| GGGGAAAA | -0.145 |
| AGAAACCA | 0.212 |
| GTTCTACA | -0.0926 |
| CGGCTGCA | -0.0688 |

Source: the supplement of paper PMC3334620
